PubChem BioAssay AID504706 (National Center for Advancing Translational Sciences (NCATS), 2011)
The campaign covered roughly 320,000 compounds. About 200 (0.062%) were called active. Inconclusive results, whose numbers are uncertain, are shown with a selection of clear calls. Calls come from the whole dose curve; as a rule, active = well fitted activation curve with a large enough effect; inconclusive = small, poorly fitted or top-dose-only effect; inactive = no such curve, though single readings can be large or run the other way. Potencies of inconclusive entries are left out as doubtful fits.
Potency is the fitted concentration of half-maximal effect; tags give direction and shape of the fitted curve.

Experiment: qHTS assay for re-activators of p53 using a Luc reporter; note: nearly all actives have a fitted effect of over 45% in size; for activity change, positive = activation: % of control where 0% means no effect
Conditions: H1299 p53-A138V BP100-luciferase reporter, luminescence, 24 h; series mostly up to 92.2 µM; activity change, positive = activation: at the top concentration
Summary of the method: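 p53-null H1299 cells stably carrying temperature-sensitive p53-A138V and a BP100-luciferase reporter were pinned with compounds (4-point, 1:5 series) and held 24 hrs at 37 deg C. Luminescence was read 10 min after detection reagent.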
For `CC1(C)CC(=O)CC(=O)/C1=N\Nc1c(Cl)cc(Cl)cc1Cl`, the Potency was inconclusive [activator, partial curve, poor fit].
For `Cc1ccc(C(C)C)c(OCc2ccc(C(=O)N/N=C/c3ccc(O)cc3O)cc2)c1`, the Potency was inconclusive [activator, partial curve, poor fit].
For `Cc1onc(-c2ccccc2)c1C(=O)NNC(=S)NC(=O)/C=C/c1cccs1`, the “activity change, positive = activation” value was inactive: -3.29%.
In the case of `Cc1ccnc(NC(=O)c2ccc(S(=O)(=O)N3CCC(C)CC3)cc2)c1`, the Potency is reported as inconclusive [activator, full curve, poor fit].
In the case of `Cc1cc(Cl)c2oc(C(=O)NCCN3CCCCC3CO)c(C)c2c1` (configuration not stated), the “activity change, positive = activation” value is reported as inactive: 16%.
In the case of `Cc1ccc(C)c(OCC(=O)Nc2c(C)n(C)n(-c3ccccc3)c2=O)c1`, the “activity change, positive = activation” value is reported as inactive: 0.744%.
For `COc1ccc(-c2csc(C)n2)cc1Br`, the “activity change, positive = activation” value was inactive: 8.63%.
For `Cn1c(CNc2ccccc2O)nc2ccccc21`, the Potency was inconclusive [activator, partial curve, poor fit].
For `CCN1CCCC1CNC(=O)c1ccc2c(=O)n(CCOC)c(=O)[nH]c2c1` (configuration not stated), the “activity change, positive = activation” value was inactive: -0.416%.
With `COc1ccc(NC(=O)C(c2ccccn2)N(C(C)=O)c2ccc(C)cc2)cc1` (configuration not stated) the Potency was inconclusive [activator, partial curve, poor fit].
In the case of `O=C(CCl)Nc1ccccc1C(=O)Nc1ccc2c(c1)OCO2`, the Potency is reported as inconclusive [activator, single point].
With `COc1ccc(C(=O)/C=C/c2ccc(O)cc2)c(O)c1CC=C(C)C` the “activity change, positive = activation” value was inactive: -6.53%.
With `O=C(NC(=S)Nc1ccccc1O)c1ccccc1Cl` the Potency was inconclusive [activator, partial curve, poor fit].
In the case of `CC(Oc1ccc(Br)cc1)C(=O)Nn1c(=S)[nH]c2ncccc2c1=O` (configuration not stated), the Potency is reported as inconclusive [activator, single point].
In the case of `CCCC(C)NC(=O)c1ccc(F)cc1` (configuration not stated), the Potency is reported as inconclusive [activator, single point].
In the case of `Cc1cc(C)c2nc(N(CCN(C)C)C(=O)c3ccc(S(=O)(=O)N(C)CC4CCCO4)cc3)sc2c1` (configuration not stated), the Potency is reported as inconclusive [activator, single point].
In the case of `CCOC(=O)c1cc(-c2ccccc2)sc1N`, the Potency is reported as inconclusive [activator, full curve].
For `O=c1c2c(nc3n1CCCCC3)sc1c(O)cccc12`, the Potency was inconclusive [activator, partial curve, poor fit].
With `COc1cccc(NC(=S)Nc2cc(C)cc(C)n2)c1` the “activity change, positive = activation” value was inactive: 17.3%.
With `CN(C)CCNC(=O)c1c(CSc2ccccc2)noc1C(=O)NCc1ccccc1` the “activity change, positive = activation” value was inactive: -1.99%.
In the case of `COc1ccc(Cl)cc1NC(=O)c1cccnc1`, the “activity change, positive = activation” value is reported as inactive: -5.82%.
With `CN(C(=O)c1cccc(N2C(=O)C3C4C=CC(C4)C3C2=O)c1)C1CCCCC1` (configuration not stated) the “activity change, positive = activation” value was inactive: 13.8%.
For `Cc1ccc(NCC(=O)NNC2=NCCC2)c(C)c1`, the “activity change, positive = activation” value was inactive: 1.24%.
For `CCC(=O)Nc1sc2c(c1C(N)=O)CCC2`, the “activity change, positive = activation” value was inactive: -1.29%.
With `CCOc1ccc(S(=O)(=O)Nc2cccc(N(C)S(C)(=O)=O)c2)cc1` the “activity change, positive = activation” value was inactive: -8.49%.
With `Cc1cccc(-c2cc3c(nn2)-c2ccccc2C3=O)c1` the Potency was inconclusive [activator, partial curve, poor fit].
In the case of `Cc1c(C(=O)N2CCOCC2)[nH]c2c1C(=O)CC(c1ccc(Cl)cc1)C2` (configuration not stated), the Potency is reported as inconclusive [activator, single point].
For `O=C(NCc1cccc2ccsc12)c1cccs1`, the Potency was inconclusive [activator, single point].
With `c1csc(-c2nc(N3CCCCC3)no2)c1` the Potency was inconclusive [activator, full curve, poor fit].
For `Cc1cccc(N2C(S)=C(C#N)C(=O)NC23CCCCC3)c1`, the Potency was inconclusive [activator, single point].
In the case of `CC1=NOC(=O)/C1=C/c1ccc(N(C)C)cc1`, the “activity change, positive = activation” value is reported as inactive: 27.5%.
For `Cc1ccc(Cl)cc1N1CCN(C(=O)Cc2csc(Nc3nc(=S)[nH]c4ccccc34)n2)CC1`, the “activity change, positive = activation” value was inactive: -1.85%.
In the case of `O=C(c1cc(-c2ccc(O)cc2)on1)N1CCCCCC1`, the Potency is reported as inconclusive [activator, full curve, poor fit].
With `Cc1cccc(-n2cc(CNCCN3CCOC3=O)c(-c3cccc(F)c3)n2)c1` the “activity change, positive = activation” value was inactive: -0.289%.
In the case of `O=C(Nc1cccc(Cl)c1)Nc1sccc1-c1nc2ccccc2s1`, the “activity change, positive = activation” value is reported as inactive: 1.46%.
In the case of `COc1cccc(N/C(SC)=C(/C#N)C(N)=O)c1`, the Potency is reported as inconclusive [activator, single point].
For `COc1cccc(/C=C2/C(=O)NN(c3ccc(Br)cc3)C2=O)c1O`, the Potency was inconclusive [activator, partial curve, poor fit].
With `CCN(CC)c1ccc(/C=N/N2CC(=O)NC2=S)cc1` the Potency was inconclusive [activator, single point].
In the case of `Cc1nnsc1-c1onc(C)c1C(=O)Nc1cc(Cl)cc(Cl)c1`, the “activity change, positive = activation” value is reported as inactive: 9.03%.
In the case of `C=CCN1C(=O)S/C(=C/c2ccsc2)C1=O`, the Potency is reported as inconclusive [activator, partial curve, poor fit].
With `CC(C)n1cc(/C=N/Nc2ccc(C(=O)O)cc2)c2ccccc21` the Potency was inconclusive [activator, partial curve, poor fit].
For `CCCCC(NC(=O)Cc1c(C)c2cc3c4c(oc3cc2oc1=O)CCCC4)C(=O)O` (configuration not stated), the “activity change, positive = activation” value was inactive: -0.384%.
With `FC(F)Sc1ccc(NC(=S)NCC2CCCCC2)cc1` the Potency was inconclusive [activator, full curve, poor fit].
With `CCN(CC)C(=S)SCC(=O)c1c(C)[nH]c2ccccc12` the “activity change, positive = activation” value was inactive: 17.1%.
In the case of `CC(=O)Oc1ccc(/C=C2/CCc3ccccc3C2=O)cc1`, the Potency is reported as inconclusive [activator, partial curve, poor fit].
In the case of `CCCCN(C)S(=O)(=O)c1ccc(C(=O)Nc2nnc(CSC)o2)cc1`, the “activity change, positive = activation” value is reported as inactive: 9.87%.
With `COc1cc(/C=N/Nc2nncc3ccccc23)cc(OC)c1OC` the Potency was inconclusive [activator, full curve, poor fit].
For `COc1cccc(-c2nc(-c3ccc(NC(=O)c4cccs4)cc3)no2)c1`, the Potency was inconclusive [activator, full curve, poor fit].
For `Clc1ccc(-c2nnn(Cc3nc4ccccc4s3)n2)cc1`, the Potency was inconclusive [activator, partial curve, poor fit].
For `Cc1nc(NC(=O)c2ccccc2)sc1C`, the Potency was inconclusive [activator, full curve, poor fit].
With `O=C(Nc1sc2c(c1C(=O)O)CCC2)c1cccc(Cl)c1` the Potency was inconclusive [activator, full curve, poor fit].
In the case of `CCN(CC)S(=O)(=O)c1cc(C(=O)OCC(=O)Nc2ccc(-c3nc4ccc(C)cc4s3)cc2)ccc1F`, the Potency is reported as inconclusive [activator, partial curve, poor fit].
With `O=C(Nc1ccccc1)N1CCOCC1` the “activity change, positive = activation” value was inactive: 4.1%.
In the case of `Cc1ccccc1N1C(=O)CC(Sc2nnc(-c3ccccc3)o2)C1=O` (configuration not stated), the “activity change, positive = activation” value is reported as inactive: -56.8%.
For `COC(=O)c1c(NC(NC(=O)C(C)C)C(Cl)(Cl)Cl)sc2c1CCC2` (configuration not stated), the “activity change, positive = activation” value was inactive: -25.9%.
With `O=C(NC(=S)Nc1ccc2c(c1)OCCO2)c1ccco1` the Potency was inconclusive [activator, partial curve, poor fit].
In the case of `Cc1ccc(N)cc1-n1c(C)ccc1C`, the Potency is reported as inconclusive [activator, partial curve, poor fit].
For `Cc1sc(NC(=O)c2ccccc2F)c(CN2CCCCC2)c1C`, the Potency was inconclusive [activator, partial curve, poor fit].
For `O=C(CSc1n[nH]c(=O)[nH]c1=O)NCC1CCCCC1`, the “activity change, positive = activation” value was inactive: 2.6%.
For `CC(C)(C)NC(=O)COC(=O)c1ccc(S(=O)(=O)N2CCCCCC2)cc1`, the Potency was inconclusive [activator, single point].
With `COc1ccc(-n2c(=S)[nH]c3ccccc3c2=S)cc1` the “activity change, positive = activation” value was inactive: 0.827%.
With `COc1cc(C)ccc1OCCOc1c(C)cccc1Cl` the Potency was inconclusive [activator, partial curve, poor fit].
For `COc1cc(C)ccc1OCc1cc(C(=O)N(Cc2c(C)nn(C)c2C)C2CC2)no1`, the Potency was inconclusive [activator, partial curve, poor fit].
For `O=c1nc(/C=C/c2ccc(O)c(O)c2)oc2ccccc12`, the Potency was inconclusive [activator, full curve].
In the case of `O=C(Nc1cccc(O)c1)c1ccc([N+](=O)[O-])cc1Cl`, the Potency is reported as inconclusive [activator, partial curve, poor fit].
For `Cc1ccc(O)c(C(=O)CC(=O)c2cccc(F)c2)c1`, the Potency was inconclusive [activator, partial curve, poor fit].
With `COCCNC(=O)/C(C#N)=C/c1cc(C)n(C2CCCCC2)c1C` the Potency was inconclusive [activator, partial curve, poor fit].
For `COC(=O)c1ccccc1NC(=O)CN(c1ccc(OC)cc1)S(C)(=O)=O`, the Potency was inconclusive [activator, single point].
For `CCCCN=Cc1sc2ccc(OCC)cc2c1O`, the Potency was inconclusive [activator, partial curve, poor fit].
For `O=C(/C=C/c1ccc2c(c1)OCCO2)c1ccccc1`, the Potency was inconclusive [activator, partial curve, poor fit].
For `CC(C)(C)CC(=O)Nc1ccc(Nc2ccccc2)cc1`, the Potency was inconclusive [activator, full curve, poor fit].
For `O=S(=O)(N/N=C/c1cn(Cc2ccccc2)c2ccccc12)c1ccccc1`, the Potency was inconclusive [activator, full curve, poor fit].
